# According to PMC3316135:
# Chains of the proteins cited; added tags and fusions are not shown. Lines headed by an entry give the natural chain unless they say otherwise; changes in a name come on top. A line that says so, or that is headed by a name, gives the form on record, which may keep a tag or linker. Residues count along the entry.
# UniProt P68400: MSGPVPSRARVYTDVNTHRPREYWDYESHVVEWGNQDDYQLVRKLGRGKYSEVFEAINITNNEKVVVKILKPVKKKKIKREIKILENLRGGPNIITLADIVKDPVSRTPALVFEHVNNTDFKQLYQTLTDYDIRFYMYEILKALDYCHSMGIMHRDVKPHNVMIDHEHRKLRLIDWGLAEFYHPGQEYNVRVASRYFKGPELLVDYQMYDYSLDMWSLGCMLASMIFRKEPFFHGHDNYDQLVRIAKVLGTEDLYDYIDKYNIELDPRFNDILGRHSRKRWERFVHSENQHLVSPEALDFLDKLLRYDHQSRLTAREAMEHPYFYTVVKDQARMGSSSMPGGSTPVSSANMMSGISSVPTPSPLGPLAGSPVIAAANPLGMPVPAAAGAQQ
# DNA-PKcs Fragment C (aa 2005-2555), Myc-tagged (human (cDNA from HCT116 cells)) (P78527, residues 2005-2555): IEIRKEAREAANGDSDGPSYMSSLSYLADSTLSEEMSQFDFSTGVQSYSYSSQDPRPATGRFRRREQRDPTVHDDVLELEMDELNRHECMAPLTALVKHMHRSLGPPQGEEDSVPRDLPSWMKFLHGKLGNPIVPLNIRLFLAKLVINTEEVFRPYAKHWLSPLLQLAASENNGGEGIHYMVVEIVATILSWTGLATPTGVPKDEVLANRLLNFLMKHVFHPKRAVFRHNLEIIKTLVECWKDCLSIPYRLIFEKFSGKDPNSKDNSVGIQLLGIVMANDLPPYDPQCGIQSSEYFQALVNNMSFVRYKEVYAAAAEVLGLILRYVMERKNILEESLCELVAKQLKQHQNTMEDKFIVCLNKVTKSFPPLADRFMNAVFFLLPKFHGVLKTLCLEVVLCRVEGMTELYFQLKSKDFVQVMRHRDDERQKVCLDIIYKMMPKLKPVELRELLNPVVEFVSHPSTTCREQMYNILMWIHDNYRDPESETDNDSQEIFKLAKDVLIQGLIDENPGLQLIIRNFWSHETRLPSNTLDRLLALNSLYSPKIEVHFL
# DNA-PKcs Fragment D (aa 2768-3258), Myc-tagged (human (cDNA from HCT116 cells)) (P78527, residues 2768-3258): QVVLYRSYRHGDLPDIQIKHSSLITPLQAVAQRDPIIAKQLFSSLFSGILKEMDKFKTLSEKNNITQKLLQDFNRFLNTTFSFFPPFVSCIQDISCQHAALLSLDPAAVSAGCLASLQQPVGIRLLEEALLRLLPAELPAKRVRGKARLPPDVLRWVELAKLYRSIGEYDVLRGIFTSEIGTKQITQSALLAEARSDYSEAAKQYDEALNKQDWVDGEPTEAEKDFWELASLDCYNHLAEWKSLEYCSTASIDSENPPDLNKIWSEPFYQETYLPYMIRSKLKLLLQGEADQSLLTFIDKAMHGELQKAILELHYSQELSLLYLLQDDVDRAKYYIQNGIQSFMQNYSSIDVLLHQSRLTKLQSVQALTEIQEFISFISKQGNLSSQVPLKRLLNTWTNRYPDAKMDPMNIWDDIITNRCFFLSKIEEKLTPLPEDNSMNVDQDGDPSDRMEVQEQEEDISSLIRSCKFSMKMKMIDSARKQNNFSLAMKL
# Results are given in words; binding and its absence hold for the method and conditions named. Binding seen in cells or lysates may run through a third protein. Some entries that bind do so weakly or less than the wild type.
# Experiments:
# [1] = target: protein kinase CK2 catalytic subunit α' (CK2α') (human (endogenous in M059K and HCT116)) (UniProt P19784); experiment: proximity ligation; in situ PLA on fixed M059K cells grown on cover slips, endogenous proteins, two primary antibodies for each pair; cells untreated or with 0.5 μg/ml NCS for 1 hour, with scramble siRNA or siRNA against CK2α/α'; signals per cell counted with BlobFinder
# [2] = target: protein kinase CK2 catalytic subunit α' (CK2α') (human (endogenous in M059K and HCT116)) (UniProt P19784); experiment: co-IP; lysates of HCT116 and M059K cells precipitated with rabbit polyclonal anti-CK2α serum, blot for DNA-PKcs; cells untreated or treated with NCS
# [3] = target: protein kinase CK2 catalytic subunit α (CK2α), endogenous (human (endogenous in HCT116 and M059K)) (UniProt P68400); experiment: as above
# [4] = target: phosphorylated histone H2AX (γ-H2AX, p-S139) (human (endogenous in M059K)) (UniProt P16104); experiment: proximity ligation; in situ PLA on fixed M059K cells grown on cover slips, endogenous proteins, two primary antibodies for each pair; cells untreated or with 0.5 μg/ml NCS for 1 hour, with scramble siRNA or siRNA against CK2α/α'; signals per cell counted with BlobFinder
# [5] = target: DNA-PKcs Fragment E (aa 3414-4123), Myc-tagged (human (cDNA from HCT116 cells)) (UniProt P78527); experiment: condition: 0.5 μg recombinant CK2α with 500 μg extract; co-IP; 500 μg whole extract of Cos-1 cells expressing a Myc-tagged DNA-PKcs fragment incubated with 0.5 μg purified human recombinant CK2α; precipitated with rabbit monoclonal anti-Myc, blot for CK2α and Myc; only the binder purified
# [6] = target: DNA-PKcs Fragment D (aa 2768-3258), Myc-tagged (human (cDNA from HCT116 cells)) (UniProt P78527); experiment: co-IP; 500 μg whole extract of Cos-1 cells expressing a Myc-tagged DNA-PKcs fragment incubated with 0.5 μg purified human recombinant CK2α; precipitated with rabbit monoclonal anti-Myc, blot for CK2α and Myc; only the binder purified
# [7] = target: DNA-PKcs Fragment C (aa 2005-2555), Myc-tagged (human (cDNA from HCT116 cells)) (UniProt P78527); experiment: as above
substance,measurement,setting,value
catalytic subunit of the DNA-dependent protein kinase (DNA-PKcs) (from UniProt P78527 1-4128) (enzyme),binding,[1],binds
same,binding,[2],binds
same,binding,[3],binds
protein kinase CK2 catalytic subunit α' (CK2α') (from UniProt P19784 1-350) (enzyme),binding,[4],binds
human recombinant CK2α (from UniProt P68400 1-391) (enzyme),binding,[5],no binding
same,binding,[6],binds
same,binding,[7],binds
